According to the supplement of paper PMC4206461:
The list shows a part of the results.

Each molecule was assayed on Pseudomonas aeruginosa PA14 dppA1-A5 penta deletion mutant (assay: respiration area under curve with compound as sole nitrogen source, 24 h (OmniLog AUC (arbitrary units)); higher = more respiration / better utilisation as nitrogen source, active = 2000 or more; extreme values may be limits of the assay). Conditions: plate: PM6.
Description: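 Biolog Phenotype MicroArray plates PM6-PM8: each di/tripeptide is the sole nitrogen source. Tetrazolium reduction was read in the OmniLog for 24 h at 37°C and summarised as area under the respiration curve (arbitrary units). Values below 2000 count as no respiration.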

Respiration area under curve, active:
C[C@H](N)C(=O)NCC(=O)O 4200, CC[C@H](C)[C@H](N)C(=O)N[C@@H](CCCN=C(N)N)C(=O)O 9180, CC(C)C[C@H](NC(=O)[C@@H](N)CCCN=C(N)N)C(=O)O 9380, NC(=O)CC[C@H](NC(=O)[C@@H](N)CCCN=C(N)N)C(=O)O 9880

Respiration area under curve, inactive:
CC(C)[C@H](NC(=O)[C@@H](N)CCC(=O)O)C(=O)O 130, CC(C)[C@H](NC(=O)[C@@H](N)CC(=O)O)C(=O)O 901, CC[C@H](C)[C@H](N)C(=O)N[C@@H](CCSC)C(=O)O 229, C[C@H](NC(=O)CN)C(=O)O 417, CC[C@H](C)[C@H](N)C(=O)N1CCC[C@H]1C(=O)O 3, CC(C)C[C@H](NC(=O)[C@@H](N)CC(=O)O)C(=O)O 136
